Read counts are not given, so values of variants with three or more changes are uncertain.

B1: LINE1-mini (parent)
chain: GGCAGAGCUCAACACAGCGUGGCAAAGUGGCUGUGGCUAGACUGCC

Variants of B1 are the subject of this series. Kind of series: self-cleavage, relative activity (ratio to wild type); higher = more cleavage; in vitro, sequencing; the parent is a self-cleaving ribozyme.
As for GGCAGAGCUCAGCACAGCGUUGCAAAGCGGCUGUGGCUACACUGCC [A12G G21U U28C G40C], the self-cleavage was found to be 0.01. Take GGCACAGCUCAAUACAGCGUGGCAAAGUGACUGUGGCUAGACUGCC [G5C C13U G30A]: the self-cleavage was 0.07.

With GGCAAAGCUCCACACAGCGUGGCAUAGUGGCUGUGGCCAAACUGCC [G5A A11C A25U U38C G40A], the self-cleavage worked out at 0.01. The same measure for GGCAGAGCUCAACACUACUUGGCAAAUUGGCUGUGGCCAGACUGCC [A16U G17A G19U G27U U38C]: 0.16; for GCGAGAGCUCAACACAGUCUGGCAAAGUGGCUGUGGCUAGACUGCC [G2C C3G C18U G19C]: 0.04; for GGCAAAUCUCAACACGGCGUGGCAACGUGGCUGUGGCUAAACUGCU [G5A G7U A16G A26C G40A C46U]: 0.06. Take GGCAGAGCUCAACACAUCGUGACAACGUGGCUGUGGCUAGACUGCC [G17U G22A A26C]: the self-cleavage amounted to 0.08.

Take GGCAGAGCCCAUCACAGCGUGGCAAAGUGGCUGUUGCUAGACAGUC [U9C A12U G35U U43A C45U]: the self-cleavage is 0.01. In the case of GGCAGAACUCAACACAGCGUGGCAAAGUGGCUGUUGCUAGACUACC [G7A G35U G44A], the self-cleavage was found to be 0.24. As to GGCUGAGUUCAACACAGCGUGGCAAAACGGCUGUGGCUAGACUGCC [A4U C8U G27A U28C], the self-cleavage is 0.05. GGCAGAGCACUACACAGCGUGGCAAAGUGGCUGUGGCUAGACUUCC [U9A A11U G44U]: the self-cleavage came to 0.06. For GGCAGAGGUCAACACAGCGCUGCAAAGUGGCUGUGUCUAGACUGCC [C8G U20C G21U G36U] the value was 0.1; for GGCAUAGCUCAACACAGUGUGGCAAAGUGGCUGGGGCUUGACUGCC [G5U C18U U34G A39U], 0.01; for UGCAGAGCUCAAUUCACCAUGGCAAAGUGGCUGUGGCUAGACUGCC [G1U C13U A14U G17C G19A], 0.14.

For the variant GCCAGAGCUAAACACAGCUUGGCAGAGUGGCUGUGGCUAGACUGCC [G2C C10A G19U A25G], the self-cleavage was found to be 0.02. With GGCAGAGCUCAACACCGCGUGGCAAAGUAGCCGUGGCUAGACUGCC [A16C G29A U32C], the self-cleavage came to 0.04.

With GGCAGAGCUCAACACCGCGUGGCAAAGUGGCUGUGGGUUGCCUGCC [A16C C37G A39U A41C], the self-cleavage was determined as 0.

With GGCAGAGGACAACGCAGCGUGACAAAGUGGCUGUUGCUAGACUGCC [C8G U9A A14G G22A G35U], the self-cleavage stood at 0.02. For GGCUGAGCUCAACACAGCGUGGCAAAGUGUAUGUGGCAAGACUGCC [A4U G30U C31A U38A] the value was 0. Take GGCAGAGCUCAGCACAGCGUGGCAUAGUGGCUGUCUCUAGAAUGCC [A12G A25U G35C G36U C42A]: the self-cleavage is 0.03. The same measure for GGCAGAGCUCAACACCGCGUGGCAAAGUGCCUGUGGUUAGACUGCC [A16C G30C C37U]: 0.06; for UGUAUAGCUCAACCCAGCGUGGCAAAGUGGCUGUGGCUAGACUGCC [G1U C3U G5U A14C]: 0.15; for GGCACAGCUCAACACAGCGUGGCAAAGUGGCUGUGGCUAGAAAGCC [G5C C42A U43A]: 0.03. On to GGCAGAGCUCAACACAGCGUGGCAAUGUGGCUAUGGCUAUACUGCC [A26U G33A G40U], for which the self-cleavage came out at 0.05.

Regarding GGCAGAGCUCAAAACAGCGUAGCAGAGUGGCUGUGGCUAGACUGCC [C13A G21A A25G], the self-cleavage worked out at 0.01. With GGCAGGGAUCAACUCAGCGUGGCAAAGUGGCUGUGGCUCGACUGCC [A6G C8A A14U A39C], the self-cleavage came out at 0.06. On to GAAAGAGCUCAACAUCGCGUGCCAAAGUGGCUGUGGCUAGACUGCC [G2A C3A C15U A16C G22C], for which the self-cleavage is 0.3. For GGCACAGCUCAAGACAGCGUGGCAAAGUGGCUGUGACUAAACUGCC [G5C C13G G36A G40A] the value was 0.07; for GGCAGAGCUCAACACAGCGUGGCAAAUUGGCUGUGGUUAGACUGUC [G27U C37U C45U], 0.17; for GGCAGAGCUCAACACAGAGUGGCAAAGUGGCGGUGGCUAGACUGCG [C18A U32G C46G], 0.02. With GACGGGGCACAACAGAGCGUGGCAAAGUGGCUGUGGCUAGACUGCC [G2A A4G A6G U9A C15G], the self-cleavage was 0.04. The same measure for GGCAGAGCUCAACACAGCGUGGCAACGUGGCAGUGGCUAGACUGCG [A26C U32A C46G]: 0.06.

For the variant GGCAGAGCUCAACACAGCGUGGUACAGUGGCUGUUGCUAGACCGCC [C23U A25C G35U U43C], the self-cleavage was determined as 0.09. For the variant GGCAGAGCUCAACACAGCUUGGCAAAGUGGCCGUGGCCUGUGUGCC [G19U U32C U38C A39U A41U C42G], the self-cleavage was 0.08. As for GGAAGAGCUCAACACACCGUGGCAAAGUGGCUGUGGCUCGACUGCC [C3A G17C A39C], the self-cleavage was 0.42. As for GGCAGAGCUCAACACAGCGUGGCAUAGUGGCUGUGGCUAGACUGUG [A25U C45U C46G], the self-cleavage worked out at 0.16. Take GGCAGAGCUCAACACAGCGUUGCAAAGUGGCUGAGGAUAAAUUGCC [G21U U34A C37A G40A C42U]: the self-cleavage was determined as 0.04. Take AGCAGAGCUCAACACACCGUGGCAAAGUGGCUGUGGUUAGACUGCC [G1A G17C C37U]: the self-cleavage was 0.12. As for AGCAGAGCUCAAUACAGCGUGGCAAAGUGGGUGUGGCUAGACUGCC [G1A C13U C31G], the self-cleavage amounted to 0.05. Turning to GUCAGAGCUCAAAACAGCGUGGCAAAGUGGCUGCGUCUGGACUGCC [G2U C13A U34C G36U A39G], the self-cleavage worked out at 0.01. Consider GGCAAAGCUCACCACAGCGUGGCAAAGUGGCUGUGGGGAGACUGCC [G5A A12C C37G U38G], for which the self-cleavage was determined as 0. The same measure for GGGAGAGUUCAACACAGCGUGGCAAAGUGGCUGUGGCUAGACCGCC [C3G C8U U43C]: 0.05.

For the variant GGCCGAGCUCAACAUAGCGUGGCAAAGUGGCUGCGGCUAGACUGCC [A4C C15U U34C], the self-cleavage is 0.04. Consider GGCAGACCCCAACACAGCGUGGCAAAUUGGCUGUGGCUAGACUGUC [G7C U9C G27U C45U], for which the self-cleavage came out at 0.02. For GGCAGAGCUCAACACAGCGAGGCAAAGUGGCUGUGGCUAGUCUGGC [U20A A41U C45G] the value was 0.22. The same measure for GGCAGAGCUCAACACAGCGUGGCAAAGUGGCUGGGGCCAGACUGCG [U34G U38C C46G]: 0.01; for GGCACAGCUCAACACAGAGUGGCAAAGUGGCUGUGUCUAGACUGCC [G5C C18A G36U]: 0.03. With GGCAGAGCUUAACACAGCGUGCCAAAGUGGCCGUGGCUUCACCGCU [C10U G22C U32C A39U G40C U43C C46U], the self-cleavage was 0.01. Turning to AGCACAGCUCAACAUAGCGUCGCAAAGUGGGUGUGGCUAGACUGCC [G1A G5C C15U G21C C31G], the self-cleavage amounted to 0.1.

With GGCAGAGCUAAACCCAGCGUGGCAAAGUGGAUGUGGCUAGACUGCA [C10A A14C C31A C46A], the self-cleavage worked out at 0.08. Regarding GGCAGACCUCAACUAAGCGUGGCAAAGUGGCUGUGGCUAGACUGCC [G7C A14U C15A], the self-cleavage was determined as 0.16. Turning to GGCAGAGCUUAACACAGCUUGGCAUAAAGGCUGUGGCUAGACUGCC [C10U G19U A25U G27A U28A], the self-cleavage worked out at 0.07. For GGUGGAGCUCAACACAGCGUGUCAAAGUGGCUUUGGCUAGACUGCC [C3U A4G G22U G33U], the self-cleavage was found to be 0.12. On to UGCAGAGCUCAAAACAGCGUGGCAAAGUGGCUGUGGCCGGACUGCC [G1U C13A U38C A39G], for which the self-cleavage stood at 0.05. As for GGCAGAGCUCAACCCAGUGUGGCAAAGUGGCUGUGGCUGGACUGCC [A14C C18U A39G], the self-cleavage was 0.02. GGCAGAGCUCAACACAGCUUUGCAAAGUGGCUGUGGCUAAACUGCC [G19U G21U G40A]: the self-cleavage turned out to be 0.03.

Values taken from the RNAGym collection of RNA variant scans (doi:10.7554/elife.90254).
